# Laboratory results taken from PubChem BioAssay AID1476 (National Center for Advancing Translational Sciences (NCATS), 2009).
# About 4,500 (2.2%) of roughly 200,000 compounds were called active. This list was built around the results that the source calls inconclusive (neither active nor inactive); the mix of calls is not that of the screen. Calls follow the shape of the dose curve; as a rule, active = well fitted inhibition curve with a large enough effect; inconclusive = small, poorly fitted or top-dose-only effect, or effect the other way; inactive = flat fitted curve, though single readings scatter. Potencies of inconclusive entries are doubtful fits and often do not repeat.
# Biological target: Cruzipain (Trypanosoma cruzi) (UniProt P25779)
# Experiment: qHTS Assay for Promiscuous and Specific Inhibitors of Cruzain (without detergent); also: nearly all actives have a fitted effect of over 40% in size;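 as to max response, negative = inhibition: plate controls were enzyme without inhibitor for no effect and buffer without enzyme for full effect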
# Details: purified cruzain, Z-FR-AMC fluorescence, no detergent
# How it was run: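 Detergent-free condition (0.00005% Triton X-100) in acetate buffer pH 5.5 with DTT. 1.5 nM enzyme and compound were pre-mixed 15 min, then 2 uM Z-FR-AMC substrate added; reaction progress from fluorescence change between first and third reads (60 s).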
# Potency is read from the fitted curve at half-maximal effect; tags tell the direction and shape of the fitted curve.
# Chain of UniProt P25779 (P25779 whole entry, looked up): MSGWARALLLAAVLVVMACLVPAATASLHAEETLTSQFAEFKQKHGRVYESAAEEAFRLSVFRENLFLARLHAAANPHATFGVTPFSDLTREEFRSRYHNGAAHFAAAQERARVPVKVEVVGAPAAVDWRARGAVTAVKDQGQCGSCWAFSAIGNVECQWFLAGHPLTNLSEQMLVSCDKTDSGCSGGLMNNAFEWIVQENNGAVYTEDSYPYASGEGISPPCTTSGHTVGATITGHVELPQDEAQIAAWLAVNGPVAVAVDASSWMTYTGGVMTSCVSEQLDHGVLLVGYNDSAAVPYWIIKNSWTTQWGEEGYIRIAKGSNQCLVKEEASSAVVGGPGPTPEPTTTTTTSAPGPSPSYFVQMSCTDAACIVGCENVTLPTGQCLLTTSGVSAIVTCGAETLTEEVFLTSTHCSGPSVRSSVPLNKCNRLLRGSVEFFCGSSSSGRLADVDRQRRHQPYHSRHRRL
Compound,Potency,"max response, negative = inhibition"
COCCn1c(=O)c(-c2ccc(OC)cc2)nc2cnc(Oc3ccccc3)nc21,"inconclusive: 31.6 µM [activator, single point]",
Cc1ccc(CN2CCCn3nc(C(=O)NCC(C)c4ccccc4)cc3C2=O)cc1 (configuration not stated),,inactive: 3.59%
O=C(NCc1cc(C(F)(F)F)cc(C(F)(F)F)c1)C12CN(Cc3ccccc3)CC1C(c1cccc([N+](=O)[O-])c1)=NO2 (configuration not stated),"inconclusive: 12.6 µM [inhibitor, partial curve, poor fit]",
Cc1ccc(Cl)cc1NC(=O)C1CCN(c2nc3ccccc3n3cccc23)CC1,"inconclusive: 39.8 µM [activator, single point]",
O=C(NC1CC(=O)N(c2ccc(Cl)cc2)C1)c1ccc(S(=O)(=O)N2CCOCC2)cc1 (configuration not stated),"inconclusive: 39.8 µM [activator, single point]",
COc1ccc(-c2noc(CN(C(=O)c3cc(OC)c(OC)cc3OC)C(C)C)n2)cc1,"inconclusive: 39.8 µM [activator, single point]",
Cc1nnc2c3ccccc3nc(Nc3cccc(O)c3)n12,,inactive: -5.75%
O=C(O)[C@@H](O)[C@@H](O)[C@H](O)[C@H](O)CO,,inactive: 15.4%
COc1ccc(-c2nc(SCCOc3cc(C)ccc3C(C)C)n3[nH]c(=O)cc3n2)cc1,,inactive: 4.61%
Cc1ccc(/C(O)=C2\C(=O)C(=O)N(c3cc(C)on3)C2c2cccc(Cl)c2)cc1 (configuration not stated),"inconclusive: 39.8 µM [activator, single point]",
COC(=O)c1sc2nc(SCc3ccccc3C#N)n(N)c(=O)c2c1C,active: 31.6 µM,
Cn1ccnc1SCC(=O)c1cc2ccccc2o1,active: 25.1 µM,
Cc1cc(C)cc(NC(=O)CN(c2cccc(C)c2C)S(=O)(=O)c2ccccc2)c1,"inconclusive: 39.8 µM [inhibitor, single point]",
COc1ccc(C2=NS(=O)(=O)N(C)C(C(=O)NC(C)c3ccccc3)=C2)cc1OC (configuration not stated),"inconclusive: 31.6 µM [inhibitor, single point]",
CCNc1ncc2nc(-c3ccc(F)cc3)c(=O)n(C[C@H]3CCCO3)c2n1,,inactive: 20.3%
CC(=O)O[C@@H]1CC[C@]2(C)C(=C[C@@H]([C@@H]3C=C4C[C@@H](OC(C)=O)CC[C@]4(C)C4=C3[C@H]3C[C@@H]5O[C@@]6(CC[C@H](C)CO6)[C@@H](C)[C@@H]5[C@@]3(C)CC4)C3=C2CC[C@@]2(C)[C@H]4[C@@H](C)[C@]5(CC[C@H](C)CO5)O[C@@H]4C[C@H]32)C1,,inactive: 9.62%
O=C(CSc1nc(-c2ccccc2)no1)N1CCN(c2ccc(F)cc2)CC1,,inactive: -2.92%
CSc1cccc(NC(=O)N2CCN(S(=O)(=O)c3ccc4c(ccn4C)c3)CC2)c1,"inconclusive: 31.6 µM [inhibitor, single point]",
Nc1cc(-c2ccc(Br)cc2)nn1S(=O)(=O)c1cccc2nsnc12,"inconclusive: 31.6 µM [inhibitor, single point]",
Cc1ccc(CNC(=O)[C@H](C)[C@@H]2C[C@@]2(C)[C@@H](NC(=O)OCc2ccccc2)c2ccccc2)o1,,inactive: -7.51%
COc1ccc2c(CNCCc3ccccc3OC)c(C(=O)O)n(Cc3ccc(F)cc3Cl)c2c1,"inconclusive: 25.1 µM [inhibitor, single point]",

Compound,Potency,"max response, negative = inhibition"
CCCCn1c(-c2cccs2)nc2nc3ccccc3nc21,"inconclusive: 12.6 µM [activator, partial curve]",
CN(C)c1ccc(-c2nc(NCCc3cnc[nH]3)c3ccccc3n2)cc1,,inactive: -7.81%
COc1cc(/C=C/C(=O)N(Cc2ccccc2)c2ccccn2)cc(OC)c1OC,"inconclusive: 39.8 µM [activator, single point]",
Cc1nc2c(-c3ccc(F)cc3)c(C)nn2c(C)c1CCC(=O)NCc1cccc(Cl)c1,,inactive: -1.96%
CC(C)(CO)[C@H](O)C(=O)NCCC(=O)O,,inactive: -3.64%
O=C1N(Cc2ccc3c(c2)OCO3)c2ccccc2C1(O)c1c[nH]c2ccccc12 (configuration not stated),active: 15.8 µM,
CCc1nnc(NC(=O)CSc2nc(-c3ccccc3)cc(-c3ccc(OC)cc3)c2C#N)s1,active: 12.6 µM,
CC(CCc1ccco1)NC(=O)c1cc2c(-c3ccccc3F)nn(C)c2s1 (configuration not stated),"inconclusive: 10 µM [activator, partial curve]",
N#CC1=C(N)NC(SCc2ccccc2)=C(C#N)C12CCCCC2,"inconclusive: 31.6 µM [inhibitor, single point]",
Cc1cccc(OCCCC(=O)Nc2ccc(N3CCCCC3)cc2)c1C,active: 20 µM,
CCOc1ccccc1CNC(=O)c1cc2oc3ccccc3c2n1CC,active: 31.6 µM,
Cc1nc2ccc(NC(=O)c3nn(CC(C)C)c(=O)c4ccccc34)cc2s1,"inconclusive: 39.8 µM [activator, single point]",
CN(C)c1ccc(-c2ccc3ncnc(NC4CC4)c3c2)cc1,,inactive: -11.1%
Cc1ccc(-c2csc(NC(=O)CSc3nnc4c(n3)[nH]c3ccccc34)n2)cc1,active: 15.8 µM,
COc1cccc(C(=O)Nc2ccc3nc(SCC(=O)N4CCc5ccccc54)sc3c2)c1,active: 12.6 µM,
CCOc1ccc2nc(N3CCC(C(=O)N4CCN(C5CCCCC5)CC4)CC3)sc2c1,"inconclusive: 25.1 µM [activator, single point]",
Fc1ccc(Nc2nc(-c3ccc(F)cc3)c3c(n2)-c2ccccc2OC3)cc1,"inconclusive: 39.8 µM [inhibitor, single point]",
Cc1ccc(C(=O)OCC(=O)Nc2sc3c(c2C#N)CCCC3)cc1NC(=O)c1ccco1,"inconclusive: 25.1 µM [inhibitor, single point]",
O=c1c(O)c(-c2ccc(O)cc2)oc2cc(O)cc(O)c12,"inconclusive: 12.6 µM [inhibitor, partial curve, poor fit]",
COCc1cc(/C=N\NC(=O)COc2ccc(Cl)cc2)ccc1OC,"inconclusive: 39.8 µM [inhibitor, single point]",
COc1cc(NC(=O)CCCN2C(=O)CCn3nc(-c4cn(C)c5ccccc45)cc32)cc(OC)c1,"inconclusive: 25.1 µM [activator, partial curve]",

Compound,Potency,"max response, negative = inhibition"
COc1ccccc1NC(=O)c1ccc2nc(N3C(=O)CCC3=O)sc2c1,"inconclusive: 39.8 µM [activator, single point]",
Cc1cc(Br)ccc1NC(=O)C(NS(=O)(=O)c1cccs1)c1ccccc1 (configuration not stated),"inconclusive: 39.8 µM [inhibitor, single point]",
COc1ccc(/C(N)=N/OC(=O)CSc2ccccc2)cc1OC,"inconclusive: 39.8 µM [activator, single point]",
Cc1ccc(S(=O)(=O)Oc2ccccc2N2C(=O)C3CC=CCC3C2=O)cc1 (configuration not stated),,inactive: -2.56%
COC(=O)[C@@]1(Cc2ccc(OC)cc2)[C@H]2c3cc(C(=O)N4CCCC4)n(CCN4CCOCC4)c3C[C@H]2CN1C(=O)c1ccccc1,"inconclusive: 31.6 µM [activator, single point]",
COc1ccc(CCNC(=O)CCn2c(=O)c3cccn3c3ccc(F)cc32)cc1OC,,inactive: 10.5%
O=C(CSc1ccc(Cl)cc1)Nc1ccc(N2CCN(C(=O)c3ccc(Cl)cc3)CC2)cc1,"inconclusive: 39.8 µM [inhibitor, single point]",
Cc1ccc(C(=O)NC(=S)Nc2cccc(NC(=O)c3ccccc3)c2)cc1[N+](=O)[O-],"inconclusive: 39.8 µM [inhibitor, single point]",
C=C[C@@](C)(O)CC[C@@H]1[C@@]2(C)CCCC(C)(C)[C@@H]2CC[C@@]1(C)O,"inconclusive: 20 µM [activator, full curve]",
Cc1cccc(NC(=O)c2ccc(F)c(S(=O)(=O)N3CCN(c4ccc(F)cc4)CC3)c2)c1,"inconclusive: 31.6 µM [inhibitor, single point]",
COCCN1Cc2cccc(C(=O)Nc3ccc(C)c(C)c3)c2C1=O,"inconclusive: 0.398 µM [inhibitor, partial curve]",
O=C(O)C1=CCCN(CCOC(c2ccc(C(F)(F)F)cc2)c2ccc(C(F)(F)F)cc2)C1,"inconclusive: 25.1 µM [activator, partial curve, poor fit]",
O=C(CCBr)N1CCN(C(=O)CCBr)CC1,"inconclusive: 6.31 µM [activator, single point]",
O=C(CSc1nnc(-c2ccc(Br)cc2)n1CCc1ccccc1)NC1CCS(=O)(=O)C1 (configuration not stated),"inconclusive: 39.8 µM [activator, single point]",
CCn1c(SCC(=O)Nc2nc(-c3ccccc3)cs2)nnc1-c1ccccc1,"inconclusive: 31.6 µM [inhibitor, single point]",
Cc1ccccc1OCC(=O)NNC(=O)c1ccc(-c2ccccc2)cc1,"inconclusive: 39.8 µM [inhibitor, single point]",
COc1cc2c(cc1OC)C(C(C(=O)N(CCc1ccc(OC)c(OC)c1OC)CCc1ccc(OC)c(OC)c1OC)c1ccccc1)=NCC2 (configuration not stated),"inconclusive: 39.8 µM [activator, single point]",
CCSc1nnc(NC(=O)CSc2nnc(CNC(=O)c3ccccc3F)o2)s1,"inconclusive: 25.1 µM [inhibitor, single point]",
N#Cc1ccc(Oc2ccc(/C=N/O)cn2)cc1,,inactive: -0.695%
CC(C)C[C@@H](CC(=O)N[C@@H](CCC(=O)O)CC(=O)O)NC(=O)[C@@H]1CNCC[C@H]1NC(=O)C[C@H](CCCN)NC(=O)C[C@H](Cc1ccccc1)NC(=O)[C@@H]1CCCC[C@H]1N,,inactive: -11.7%
